# The other results are listed elsewhere or left out. The energies were worked out here from pooled read counts, against the library average; single values are noisy.
# Target: T1, Pho4 (S. cerevisiae) (UniProt P07270)
# T1 sequence: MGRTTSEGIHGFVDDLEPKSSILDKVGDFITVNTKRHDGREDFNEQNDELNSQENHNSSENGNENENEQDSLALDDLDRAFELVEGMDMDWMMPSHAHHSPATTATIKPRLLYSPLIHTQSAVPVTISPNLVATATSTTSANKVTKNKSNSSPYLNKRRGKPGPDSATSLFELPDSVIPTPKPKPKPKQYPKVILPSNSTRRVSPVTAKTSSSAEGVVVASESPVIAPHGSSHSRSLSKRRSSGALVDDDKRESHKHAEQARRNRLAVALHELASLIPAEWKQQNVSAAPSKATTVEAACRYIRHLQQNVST
# Assay: relative binding free energy (BET-seq); higher = weaker binding
# Conditions: reference: library average
row,Sequence,relative binding free energy [kcal/mol]
1,TTATACACGTGTGTCA,-0.07
2,AGGGCCACGTGAGAGG,0.18
3,ATTTTCACGTGGATCT,0.17
4,CGGTGCACGTGCCGTT,0.04
5,TTTTGCACGTGTTGTA,0.03
6,TAAGTCACGTGGCTTA,0.06
7,AATATCACGTGTATGT,0.12
8,AAGCGCACGTGAGTTT,0.21
9,GGGAGCACGTGCCGTG,-0.15
10,AGGTGCACGTGGTGGG,-0.09
11,CAGGGCACGTGGGTCG,-0.25
12,TTCGGCACGTGATATT,-0.04
13,CGGGCCACGTGATGTT,0.18
14,GGGTACACGTGTGCGG,0.1
15,CGTGGCACGTGGGAGT,-0.18
16,AACGACACGTGTTGTT,0.09
17,TGTGACACGTGTGTCG,-0.05
18,AAAGGCACGTGTATTG,-0.12
19,GAGGTCACGTGGTTCA,0.05
20,GGCTTCACGTGTTAAG,0.33
21,CGGGTCACGTGTTTAA,0.04
22,TGTTCCACGTGTTTGG,0.07
23,GGTGACACGTGTAGAA,0.1

row,Sequence,relative binding free energy [kcal/mol]
1,TTGAACACGTGGTAGC,0.07
2,GATTGCACGTGAGGGA,0.3
3,AAAGACACGTGTGGCT,0.14
4,GTTCTCACGTGTAGTA,0.36
5,AGAGTCACGTGGGAGG,0.05
6,AGAGGCACGTGTAGTT,0.14
7,TTTGTCACGTGGACTT,0.16
8,GTTTTCACGTGGTTGA,0.43
9,TTGTTCACGTGGCTTC,0.14
10,GTTGGCACGTGCGTGC,-0.04
11,TTGATCACGTGATGTT,0.42
12,GCTAGCACGTGGGCGG,-0.06
13,ATTGTCACGTGTACAG,0.05
14,TGTTTCACGTGGGGCT,0.17
15,GAAGGCACGTGGTGTT,-0.05
16,GTTGTCACGTGAGCTA,0.2
17,AGCTTCACGTGTTATG,0.19
18,AACTTCACGTGTGGTG,0.31
19,TGTGACACGTGCGGGG,-0.11
20,TGAGTCACGTGAGCAT,0.32
21,TCTTTCACGTGACGGT,0.17
22,GTTCGCACGTGAGGCG,0.24
23,AGGTGCACGTGGCGAG,-0.09

row,Sequence,relative binding free energy [kcal/mol]
1,GGTAACACGTGGAAAT,0.34
2,TAGTTCACGTGTTCGG,0.26
3,TGAAGCACGTGTTTGA,-0.17
4,TGTTCCACGTGTAGGT,0.12
5,CGTTGCACGTGGCGGA,-0.05
6,AGGGTCACGTGTTGAG,0.16
7,GAGTTCACGTGGATTT,0.38
8,GTACGCACGTGCGTTG,-0.1
9,TGTTTCACGTGATTAA,0.33
10,TCGGTCACGTGAAGGT,0.27
11,TGTCACACGTGGGAGT,0.06
12,TTGAGCACGTGTTACA,-0.02
13,TGTCGCACGTGGTGTC,-0.07
14,CTTTGCACGTGTGCGG,-0.01
15,TTACGCACGTGCTTGG,-0.19
16,TGCGTCACGTGTAGGC,0.08
17,TTGTGCACGTGGTTTT,-0.01
18,CACTTCACGTGGTGTG,0.13
19,TGTGGCACGTGGTGTA,-0.09
20,TGGATCACGTGGGAGG,0.07
21,TTGTACACGTGAAGAG,0.33
22,TATTTCACGTGTAGAG,0.21
23,CAGGGCACGTGGGGGG,-0.21

row,Sequence,relative binding free energy [kcal/mol]
1,TAAAACACGTGAGTTT,0.35
2,CTTTACACGTGATGGG,0.25
3,AGAAGCACGTGGGTCT,-0.2
4,ATTTACACGTGGTGAC,0.01
5,TATAACACGTGTAGAG,0.02
6,GGGGTCACGTGTCGGA,0.34
7,GTTGTCACGTGTGATA,0.19
8,GGAGTCACGTGTGTCT,0.12
9,AGGGGCACGTGTGGAC,-0.06
10,GGTTACACGTGTGCGG,0.23
11,TGTAACACGTGTATAA,0.01
12,TAGTTCACGTGACTTG,0.4
13,CTAATCACGTGGGGTG,-0.14
14,GGAGACACGTGGTAAT,0.03
15,TGAGGCACGTGGGTGG,-0.15
16,TAGTTCACGTGGGTTA,0.14
17,TTGGGCACGTGGAAAA,0.16
18,GATAACACGTGTCGGG,0.11
19,AGAATCACGTGTTCGG,0.12
20,TTCGTCACGTGGTAGG,0.07
21,GAGGTCACGTGTTGTC,0.19
22,GGGTTCACGTGAAGTC,0.47
23,GGATTCACGTGTGGCT,0.29

row,Sequence,relative binding free energy [kcal/mol]
1,TTATTCACGTGATCGG,0.28
2,ATCGTCACGTGTGTTT,0.08
3,GGAGTCACGTGGAATG,0.18
4,TAAGGCACGTGTGACT,0.01
5,GGTGTCACGTGTTTAA,0.11
6,TGGTACACGTGACGGG,0.22
7,ATAGGCACGTGTTTAA,-0.14
8,GTTTACACGTGTGGAC,0.17
9,GTAGTCACGTGTTTCA,0.04
10,GGCTCCACGTGGAGGT,0.03
11,GATTACACGTGATGAG,0.33
12,GTTTACACGTGAGCTG,0.16
13,TATGCCACGTGGGGGG,-0.33
14,GTCATCACGTGAGGCG,0.37
15,ATATACACGTGGCGTG,-0.03
16,GGAATCACGTGGATTG,0.3
17,AAGGGCACGTGGTATG,-0.21
18,TTTTGCACGTGCTGTG,0.01
19,CTTGGCACGTGATGGA,0.07
20,GAGCGCACGTGGTGTT,-0.1
21,AGGCGCACGTGGTCGG,-0.24
22,GTGTGCACGTGTGGTA,0.15
23,GCATGCACGTGTTAGT,0.18

# Reference: the BET-seq Pho4 binding data (Le et al. 2018)
